Where “and” joins values, the source holds several entries; their conditions need not be identical. Equal entries are not always repeated. About 12,000 (3.5%) of roughly 340,000 compounds were called active. The shares of active, inactive and inconclusive entries below differ from those in the screen. Calls follow the shape of the dose curve; as a rule, active = well fitted inhibition curve with a large enough effect; inconclusive = small, poorly fitted or top-dose-only effect, or another doubt; inactive = no such curve, though single readings can be large or run the other way. Potencies beside an inconclusive call are fits to weak or partial responses and may not hold up.
Assay: qHTS Assay for Inhibitors of Hepatitis C Virus (HCV)
Details: Huh7.5.1 HCVcc-Cre (HCVcc is cell-culture hepatitis C virus) infection, luciferase reporter, 44 h; activity change, negative = inhibition: at 41.8 µM (top of the series) unless noted
Summary of the method: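 Whole-lifecycle infectious HCVcc-Cre system; cells 1,000/well, compound then virus (~0.5 moi) added 4 h after plating, 44 h culture. Luciferase read 15 sec following 15 min substrate incubation, room temp.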
For `CN(C)c1nc(F)c(F)c(S(=O)(=O)c2ccccc2)c1F`, the “activity change, negative = inhibition” value was inactive: -31.1%. For `CCN(CC(=O)Nc1ccc(S(=O)(=O)N2CCCCC2)cc1)Cc1ccccc1`, the Potency was inconclusive: 22.4 µM [inhibitor, single point]. With `COCn1c(=O)c2c(nc(SC3=NCCS3)n2Cc2ccccc2C)n(COC)c1=O` the Potency was inconclusive: 31.6 µM [inhibitor, single point]. In the case of `COc1ccccc1NC(=O)c1nnn(Cc2ccccc2)c1NC(=O)C(F)(F)F`, the Potency is reported as inconclusive: 31.6 µM [inhibitor, single point]. In the case of `COc1ccc(-c2csc3ncn(-c4cccc(C)c4)c(=O)c23)cc1OC`, the Potency is reported as inconclusive: 11.2 µM [inhibitor, single point]. In the case of `COc1cccc(-n2nnc3c(=O)n(CC(=O)NC4CCCC4)cnc32)c1`, the “activity change, negative = inhibition” value is reported as inactive: 17.4%. For `O=C(Nc1ccc2c(c1)CCC2)Nc1ccccc1F`, the Potency was inconclusive: 10 µM [inhibitor, partial curve]. In the case of `CCCc1nn(C)c(C(=O)Nc2ccccc2)c1Cl`, the “activity change, negative = inhibition” value is reported as inactive: -27.4%. With `O=C1C(c2ccccc2)=C(N2CC2)c2ccccc21` the “activity change, negative = inhibition” value was inactive: -22.5%. In the case of `O=C(Nc1ccc2c(c1)nc1n2CCOC1)c1ccccc1`, the “activity change, negative = inhibition” value is reported as inactive: 1.4%. With `C=CCN1C(=O)/C(=C2/Sc3ccc(OC)cc3N2CC)SC1=S` the “activity change, negative = inhibition” value was inactive: -1.12%. With `COc1cccc(NC(=O)CSc2nc(C3CC3)nc3ccccc23)c1` the Potency was inconclusive: 31.6 µM [inhibitor, single point]. For `Cc1ccc(N(CC(=O)NCCc2ccc(F)cc2)S(=O)(=O)c2ccc(Cl)c([N+](=O)[O-])c2)c(C)c1`, the Potency was active: 10 µM. For `COc1ccc(CN2C(=O)c3cccnc3C2Nc2cc(Cl)ccc2OC)cc1` (centres undefined), the Potency was “inactive”. With `CC(=O)c1ccc(N2CCN(C(=O)/C=C/c3ccc(S(=O)(=O)N4CCOCC4)cc3)CC2)cc1` the Potency was inconclusive: 3.16 µM [inhibitor, partial curve]. With `CCC[N+](CC#Cc1ccccc1)(CCC)CC(=O)OCC` the “activity change, negative = inhibition” value was inactive: 13.2%. For `O=C(CSc1nc(O)c(Cc2ccccc2)c(=O)[nH]1)N1CCOCC1`, the “activity change, negative = inhibition” value was inactive: -4.95%. In the case of `COc1ccc(NC(=O)Nc2cccc3c2O[C@H](CN(C)S(=O)(=O)c2ccc(OC)cc2)[C@@H](C)CN([C@H](C)CO)C3=O)cc1`, the Potency is reported as inconclusive: 15.8 µM [inhibitor, partial curve]. With `O=C(Nc1ccccc1)c1ccc(F)c(S(=O)(=O)N2CCOCC2)c1` the “activity change, negative = inhibition” value was inactive: -27.2%. For `O=C(CSc1nc2ncccc2[nH]1)c1cccc([N+](=O)[O-])c1`, the Potency was inconclusive: 12.6 µM [inhibitor, single point]. In the case of `CCn1c(SCC(=O)Nc2cccc(F)c2)nc2c(c1=O)SC(C)C2` (centres undefined), the Potency is reported as inconclusive: 10 µM [inhibitor, single point]. For `CCOc1cc(NC(=O)Nc2ccc(F)cc2)c(OCC)cc1NC(=O)CC`, the Potency was inconclusive: 1.78 µM [inhibitor, partial curve]. In the case of `CCOc1cc(C(=O)Nc2cc(OC)cc(OC)c2)ccc1OCC(=O)N1CCOCC1`, the Potency is reported as inconclusive: 15.8 µM [inhibitor, partial curve]. In the case of `Cc1nc(SCC(=O)NCC2CCCO2)c2cc(-c3ccccc3)sc2n1` (centres undefined), the Potency is reported as inconclusive: 14.1 µM [inhibitor, single point]. In the case of `CCOc1ccc(-n2cnc3scc(-c4ccc(OC)c(OC)c4)c3c2=O)cc1`, the Potency is reported as inconclusive: 10 µM [inhibitor, partial curve]. With `COc1ccccc1NS(=O)(=O)c1cc(NC(=O)c2ccc3ccccc3n2)ccc1Cl` the “activity change, negative = inhibition” value was inactive: -0.872%. For `COc1ccccc1CN1CCN(C(c2ccccc2)c2ccccc2)CC1`, the Potency was inconclusive: 12.6 µM [inhibitor, partial curve]. In the case of `O=C1OC(c2ccccc2)(c2ccc3cc(O)ccc3c2)c2ccccc21` (centres undefined), the Potency is reported as inconclusive: 22.4 µM [inhibitor, single point]. In the case of `CC1=C/C(=N\OC(=O)/C=C/c2ccccc2)C(C)=CC1=O`, the “activity change, negative = inhibition” value is reported as inactive: 13.7%. For `CC(CCN1CCN=C1N(C)C)c1ccccc1` (centres undefined), the “activity change, negative = inhibition” value was inactive: -8.02%. With `O=c1c2ccccc2nc(SCc2nnc(-c3ccccc3Br)o2)n1-c1ccccc1` the Potency was inconclusive: 10 µM [inhibitor, partial curve]. In the case of `CC(=O)Nc1ccc(NC(=O)c2sc3nc4n(c(=O)c3c2C)CCCCC4)cc1`, the Potency is reported as inconclusive: 31.6 µM [inhibitor, single point]. For `CCN(CC)c1ccc2cc(-c3nc4ccccc4n3C)c(=O)oc2c1`, the Potency was inconclusive: 0.562 µM [inhibitor, full curve]. In the case of `Cc1c(C(=O)N2CCc3ccccc32)oc2ccccc12`, the Potency is reported as inconclusive: 8.91 µM [inhibitor, partial curve]. With `Cc1noc(C)c1COc1ccccc1C(=O)N1CCN(S(=O)(=O)c2ccccc2Br)CC1` the Potency was inconclusive: 12.6 µM [inhibitor, single point]. In the case of `Cc1ccc(NC(=O)CNS(=O)(=O)c2ccc(F)cc2)cc1C`, the Potency is reported as inconclusive: 3.16 µM [inhibitor, full curve, poor fit]. For `Cc1cc(NC(=O)CCCn2ccc([N+](=O)[O-])n2)n(Cc2ccc(F)cc2)n1`, the Potency was inconclusive: 10 µM [inhibitor, single point]. With `CCC1(c2ccc(F)cc2)NC(=O)N(CC(=O)NC2CCCC(C)C2C)C1=O` (centres undefined) the Potency was inconclusive: 31.6 µM [inhibitor, single point]. For `CCOc1ccc(-c2c(C(=O)N/N=C/c3ccc(O)cc3)nnn2-c2nonc2N)cc1`, the “activity change, negative = inhibition” value was inactive: 14.8%. In the case of `COc1ccc(N/C=C/C(=O)c2ccc3c(c2)OCO3)cc1OC`, the “activity change, negative = inhibition” value is reported as inactive: 15.2%. With `CC(C)OCCCN1C=C2C(=O)C(C)(OC(=O)CCc3ccccc3)C(=O)C=C2C=C1c1ccc(C#N)cc1` (centres undefined) the “activity change, negative = inhibition” value was inactive: -11%. In the case of `CCC(Oc1ccccc1)C(=O)Nc1cc(C(F)(F)F)ccc1N1CCOCC1` (centres undefined), the Potency is reported as inconclusive: 7.08 µM [inhibitor, partial curve]. With `CC(=O)Nc1sc(C)c(C)c1C(=O)OCC(=O)Nc1cccc(C)c1` the Potency was inconclusive: 8.91 µM [inhibitor, partial curve]. In the case of `Cc1ccc2c(c1)-c1c(cnn1CC(=O)Nc1ccccc1N1CCN(C)CC1)CO2`, the Potency is reported as “inactive”. With `COc1ccc(NC(=O)c2sc(SCc3ccccc3)nc2N)cc1` the “activity change, negative = inhibition” value was inactive: 13.6%. For `O=C(Nc1ccc(S(=O)(=O)N2CCCC2)cc1)C1CCN(S(=O)(=O)c2ccc(F)cc2)CC1`, the Potency was inconclusive: 22.4 µM [inhibitor, single point]. In the case of `O=C(CSc1nnc(CNC(=O)c2c(F)cccc2Cl)o1)Nc1ccc2c(c1)OCCO2`, the Potency is reported as inconclusive: 31.6 µM [inhibitor, single point]. With `C[C@H]1COC(=O)[C@@H](Cc2ccc(F)cc2)CC/C=C/C[C@@H](CC(=O)N(CCO)Cc2ccccc2)C(=O)N1` the Potency was inconclusive: 11.2 µM [inhibitor, partial curve]. With `O=C(NCC(c1ccc(F)cc1)N1CCOCC1)c1ccc(OCc2ccccc2)cc1` (centres undefined) the “activity change, negative = inhibition” value was inactive: 6.61%. With `Cn1c(SCc2ccc(F)cc2Cl)nc2ccccc2c1=O` the Potency was inconclusive: 7.08 µM [inhibitor, partial curve]. For `CCn1c(C)cc(C(=O)CN2C(=O)c3ccccc3S2(=O)=O)c1C`, the “activity change, negative = inhibition” value was inactive: -17.9%. In the case of `CCOC(=O)c1ccc(N2C=C(C(=O)OC)C(c3ccc(OC)c(O)c3)C(C(=O)OC)=C2)cc1`, the Potency is reported as inconclusive: 31.6 µM [inhibitor, single point]. With `Cc1sc(NC(=O)C2CSC3(C)CCC(=O)N23)nc1-c1ccccc1` (centres undefined) the Potency was inconclusive: 8.91 µM [inhibitor, partial curve]. For `Cc1ccc2n(n1)c(=O)c(Cc1ccccc1)c([O-])[n+]2-c1ccccc1`, the “activity change, negative = inhibition” value was inactive: 8.03%. In the case of `COc1ccc(-n2c(=O)c3ccccc3n(CC(=O)NC3CCCCC3)c2=O)cc1`, the Potency is reported as inconclusive: 31.6 µM [inhibitor, single point]. For `COc1ccc(OC)c(NC(=O)c2cc(S(=O)(=O)NCc3ccco3)ccc2F)c1`, the Potency was active: 25.1 µM. With `NS(=O)(=O)c1ccc(CCNc2ncnc3sccc23)cc1` the Potency was active: 5.62 µM. For `COc1ccccc1N(C)S(=O)(=O)c1ccc(C(=O)OC(C)C(=O)NCc2ccc3c(c2)OCO3)cc1` (centres undefined), the Potency was active: 11.2 µM. With `O=C(Nc1ccc(-c2nc3ccc(NC(=O)c4cccs4)cc3[nH]2)cc1)c1cccs1` the Potency was inconclusive: 2.24 µM [inhibitor, full curve]. For `CC(=O)Nc1sc(N/N=C/c2ccc(O)cc2)nc1-c1ccc(C)cc1`, the Potency was inconclusive: 12.6 µM [inhibitor, partial curve]. In the case of `COc1ccccc1C(=O)NC(=O)COC(=O)C1CCC1`, the “activity change, negative = inhibition” value is reported as inactive: 8.76%. With `Cc1cc(C)cc(-n2ncc3c2CCCC3NC(=O)C2(C(N)=O)CC2)c1` (centres undefined) the Potency was inconclusive: 31.6 µM [inhibitor, single point]. With `CN(C)c1ccc(NC(=O)c2sc(SCC(=O)Nc3ccc(Br)cc3)nc2N)cc1` the Potency was inconclusive: 0.501 µM [inhibitor, partial curve, poor fit]. In the case of `CC(CC1C(C#N)=C(N)OC2=C1C(=O)CCC2)c1ccccc1` (centres undefined), the Potency is reported as inconclusive: 8.91 µM [inhibitor, partial curve]. For `COc1ccc(-n2cnc3sc(-c4ccccc4)cc3c2=O)cc1`, the Potency was inconclusive: 3.55 µM [inhibitor, partial curve, poor fit]. In the case of `Cc1cccn2c(=O)c(/C=C(\C#N)C(=O)NCc3ccco3)c(N3CCCC(C)C3)nc12` (centres undefined), the Potency is reported as inconclusive: 5.01 µM [inhibitor, full curve, poor fit]. In the case of `CCN(CC)C(=O)COc1cc(C)cc2oc(=O)cc(-c3ccccc3)c12`, the Potency is reported as inconclusive: 11.2 µM [inhibitor, partial curve]. In the case of `O=C(/C=C/c1ccccc1)Nn1c(-c2cccs2)nc2ccccc2c1=O`, the “activity change, negative = inhibition” value is reported as inactive: -14.9%. In the case of `Cn1c(C(=O)N2CCC(C(=O)N3CCN(Cc4ccc5c(c4)OCO5)CC3)CC2)cc2sccc21`, the Potency is reported as inconclusive: 14.1 µM [inhibitor, single point] and inconclusive: 11.2 µM [inhibitor, partial curve].

Source: PubChem BioAssay AID651820 (National Center for Advancing Translational Sciences (NCATS), 2012)
% is scaled to controls: 0 for no effect and ±100 for the full control effect; potency is read from the fitted curve at half-maximal effect; tags tell the direction and shape of the fitted curve.
